# Measurements published in the supplement of paper PMC11417369.
# ± gives the standard deviation of the averaged measurements. The list shows a part of the results.
# System: PfAP2-I AP2 domain 3 (GST-tagged)
# Assay: gcPBM binding intensity (ln(normalized median fluorescence intensity)); higher = stronger DNA binding
# Method in brief: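 GST-tagged P. falciparum DNA-binding domains produced in E. coli were incubated for 1 h on an Agilent 4 × 180k array of primer-extended double-stranded 36-bp intergenic genomic probes with negative controls. Binding intensity is the highest Masliner-normalised natural-log median intensity across replicate spots of either probe orientation, with bound protein detected by Alexa488 anti-GST antibody at 488 nm.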
row,Sequence,gcPBM binding intensity (ln)
1,ATAATAATATTGTGTACACAATAATTTGTCAAATCA [CACACA_site6019],8.16 ± 0.13
2,ACATATACAAGACACACACACAACGTTTTAATAAAT [CACACA_site7017],8.12 ± 0.46
3,AAAAAAAAAAAAAAATGTACATATATATATATATAT [XGTACX_site876],9.45 ± 0.2
4,ATCATGTTATATATGTGTACATATATATGATATAAT [XGTACX_site991],7.71 ± 0.28
5,TGAACAATGTATAATTGTACGCAACGAAAATAAAAA [XGTACX_site1559],8.09 ± 0.68
6,ATTATAAATTAAAATACACACATATATACCTAATAT [CACACA_site5541],7.67 ± 0.52
7,AGAATAAAAATACAAGCACACATGTATGAAATATAT [CACACA_site3213],7.93 ± 0.72
8,ATATATAATTACACAAATAAAAAAATAAAATGAAAT [CACACA_negctrl_site1513],7.78 ± 0.6
9,AAAAAAAGAAAAATTGCACACACTTATAAAAATATA [CACACA_site4014],8.13 ± 0.26
10,TTTTGTTATGAGAGGGTGCTAATATTTGGATATAAA,9.72 ± 0.4
11,AAAAAAAAAAAAAGTAGTACATAATATGTTCCTCCT [XGTACX_site8356],8 ± 0.3
12,CCCCCCGTGTTATATACACACATAATCAAATAAAAT [CACACA_site4111],10.9 ± 0.4
13,TCTTATTAAAATATTTATATAGGTAATCACAATATT [GTGCAC_negctrl_site568],7.53 ± 0.57
14,AGAAATAAGAAATATACACACATATATATATATATA [CACACA_site2808],9.49 ± 0.49
15,TATAAAATAAGACATGCATGTTATACATATATATAT [TGCATGCA_site314],9.275 ± 0.035
16,TACCCATGCATTTTTGCACACACATATATATATAAA [CACACA_site1429],9.61 ± 0.028
17,AGACAGCGCACAAACACACAAACACCCACCCACATA [CACACA_site451],9.29 ± 0.11
18,TACTTACATATAATAACACACAAGAAAAAAATAAAA [CACACA_site1033],8.02 ± 0.61
19,ATTTTTGTACACTTCTTTTTTTTTTTTCTTTTATGT [CACACA_negctrl_site1323],8.25 ± 0.44
20,AAAAAAAAAAATAAAGAAATCAAAATTGATGAATAA [GTGCAC_negctrl_site692],7.32 ± 0.55
21,TATATATATTTATGCTGTACCAAATAAGAATAGAAA [XGTACX_site7731],7.91 ± 0.37
22,ATATGAACAAAATAAATCTCTTCAAAAATAATGTTC [GTGCAC_negctrl_site2],7.32 ± 0.56
23,TAAATGATTGCATAATGTACATATAATTTTTTTTTT [XGTACX_site1988],7.85 ± 0.34

row,Sequence,gcPBM binding intensity (ln)
1,TGTGTAAACATATTCACACACATAAATTCGCATATA [CACACA_site6961],7.62 ± 0.4
2,TATATAAAAAATAAATGTACACATGTAATAATAAAA [XGTACX_site2640],8.23 ± 0.35
3,TATAAATATACACCCACACACATATATATATATATA [CACACA_site3745],9.31 ± 0.43
4,AGCACAAGCACAAGCACACATTTATATATAAATACA [CACACA_site4642],8.11 ± 0.47
5,ACAAAATATACAAAATGTACAAAATTTACAAAATAT [XGTACX_site6466],7.68 ± 0.64
6,GTATATTTTAATATGACACACATATTATATATATAT [CACACA_site2483],8.905 ± 0.035
7,AATCAATTAATATTAGCATAAAATTTTATTATTTTG [XGTACX_negctrl_site479],7.46 ± 0.71
8,TGACATAAAAAATATACACACTATAATATATATACT [CACACA_site4898],7.58 ± 0.49
9,TGTATCCATATTTGTTCACACACACCCATATTTATA [CACACA_site9190],8.12 ± 0.57
10,ATAATATGTATGGTCACACAGACAAGGAAAGAATAA [CACACA_site5164],8.15 ± 0.72
11,ATTGTTATTTATTGTGTGCGCATTAATACATACATA [GTGCAC_site9982],8.95 ± 0.41
12,TAATGTTGAGAATTTTGTACATATAGATCAATTTAT [XGTACX_site5426],7.62 ± 0.49
13,ATTTATTATGAACATACACACAAAAAAAAAAAGTAT [CACACA_site2054],7.76 ± 0.73
14,TAACTTTGAAAAGATGGTACACAATAATATATATAT [XGTACX_site8667],8.9 ± 0.2
15,TAATAATAAAAATAAACACACATATAGATGTATATA [CACACA_site7360],7.44 ± 0.48
16,ATTTTGTTCGAAAGGTGTACATATACAAAAATTATG [XGTACX_site957],8.3 ± 0.47
17,ATTGCTTTTCTTTTTGCACACTTATGCATATATATA [CACACA_site2584],10.44 ± 0.064
18,CACTTTTCATATATGACACACAAAAAATTAATAAAA [CACACA_site3639],8.07 ± 0.32
19,AGCACACCCACAAAAACACACACAAAGGTGTTCTTA [CACACA_site8355],7.7 ± 0.78
20,TCATTATTATTCCTCACACATATATATATATATATT [CACACA_site4375],8.02 ± 0.48
21,GCATGTATAATGGTAGTGCATATAATAATATAATAA [GTGCAC_site9548],10.3 ± 0.33
22,ATTAACACTGAAAAATGTACATATATAAATATAAGC [XGTACX_site8222],7.9 ± 0.68
23,AATATTAAAAACAAAACACACAAAAAAAAATAAACT [CACACA_site6470],7.98 ± 0.62

row,Sequence,gcPBM binding intensity (ln)
1,AACGATATCTGTACTACACACATTATGTCATCCTAT [CACACA_site5374],8.27 ± 0.47
2,TAAAATAATACAAAATGTACAAAATTTACAAAATGT [XGTACX_site3541],7.45 ± 0.6
3,AATATAGAACAATGTTGTACATATAATAATCTTATA [XGTACX_site4671],7.67 ± 0.11
4,ATGTAAATTAAACATGGTACACATTATACAAAATTA [XGTACX_site5675],7.75 ± 0.45
5,TTTATGGGTATGTTTACACACATAAAAAAATATATG [CACACA_site5646],7.68 ± 0.42
6,ATATATATGAAAATATGTACATATATATATATATAA [XGTACX_site7550],7.93 ± 0.39
7,AAAGTTATAATACGTACACACCTTATCTTTTTGGCT [CACACA_site6267],8.05 ± 0.51
8,TTATAAAATAATTAATGTACGTTTATGTGTATCGAA [XGTACX_site6117],8.09 ± 0.28
9,ACTGAAAAAAGAAATACACACATTCTGGATCATATA [CACACA_site3860],7.47 ± 0.52
10,TATTATCTCTTATGAACACACATTTTTATTTTCAAA [CACACA_site3353],7.89 ± 0.28
11,ATATCGTATATGAGTGGTACTAATATGTAAAAAAAA [XGTACX_site7830],7.84 ± 0.57
12,AATGTTAAGGAGGGGAGTACATAAAATTCTCTCTCC [XGTACX_site1990],8 ± 0.28
13,AAAAGCTATAAAAATCGGTAATTTATAACAGGAATT [CACACA_negctrl_site469],7.62 ± 0.77
14,ATTATGTACTATTATACACACGTTTAATTGTAAATT [CACACA_site4278],7.99 ± 0.27
15,ATAATAATAAAGTGAACACACACATATAATATATAT [CACACA_site9378],7.72 ± 0.65
16,ATTATACACGCGCGCACACACAACAAAAAAAAAAAA [CACACA_site7630],8.55 ± 0.18
17,TAAATAAACAAATTAACACACAGAATTTTTTTTTTC [CACACA_site1674],7.49 ± 0.57
18,TGGTAACAGCATAGAAAATGGACAAACGAAATATAA [GTGCAC_negctrl_site537],8.12 ± 0.62
19,TATTTAAAAATAAAATGTACATATTATTATGCATTA [XGTACX_site1303],7.9 ± 0.2
20,TGATTCTAACTTATGGTGCAACATTATGGACACCGT,10.3 ± 0.35
21,TTACATATTTATGATTGTACACATTTATAAACAATA [XGTACX_site2190],7.82 ± 0.28
22,TTAATATTGTTATAGCGTACAAATAAACATATTAAA [XGTACX_site8153],7.89 ± 0.2
23,TTCATATAATTATATACATGCATAAATTCTAAGTAA [TGCATGCA_site622],8.02 ± 0.38

row,Sequence,gcPBM binding intensity (ln)
1,TTCATATATTATTATGCATGTTCATAAATTATCTAA [TGCATGCA_site896],7.88 ± 0.58
2,ATTTTATAAACAAATGAACACACAAACATATATATA [CACACA_site9036],8.02 ± 0.61
3,TACATACATAAACACACACACACATATATATATATA [CACACA_site8953],9.4 ± 0.42
4,CATTAATGACATGATTGTACATAAGCTTTTTTACAT [XGTACX_site1888],7.75 ± 0.61
5,ACCCATTCAAATTTCGCACACACATACAAAAAAAAA [CACACA_site3094],8.79 ± 0.12
6,ATCAAAAGAAAACACACACACATACATATATATATA [CACACA_site3795],9.15 ± 0.16
7,ATTTGTGTATATTAGAGTACATAAAATTAGAGGAAC [XGTACX_site1654],8.43 ± 0.42
8,ATATTGTAAGTAAAATGTAATAAATATAATAAAATA [CACACA_negctrl_site697],7.89 ± 0.45
9,TTAGTATATACATTTGCACACATTATTTTTTAACAT [CACACA_site2618],9.24 ± 0.4
10,AAAAGGAAAATACTAGCACACAATATATAATAAACA [CACACA_site285],7.99 ± 0.49
11,TCCTTGCATTTTAAAACACACAAAAATTAATTGTTA [CACACA_site7152],8.57 ± 0.53
12,TTTCTAATTATTTCCCTTCAAATATATTAATATCGT [CACACA_negctrl_site429],7.63 ± 0.59
13,TAAAAATGTGGACACACACACATATATATATTTAAT [CACACA_site4941],8.015 ± 0.049
14,ATATATATTATTATATGTACATATAAATATATTAAT [XGTACX_site5270],7.8 ± 0.12
15,GTATATATGTATGTATGTACGTATATAGTTATGTAT [XGTACX_site6769],8.11 ± 0.25
16,ATAAAAAAATTAAATACATGCACATATACACATACA [TGCATGCA_site129],8.17 ± 0.38
17,TTTATTTTTTCCAAGTCACACATGTTTTGATATATT [CACACA_site4946],7.87 ± 0.66
18,TACTGAAATAATTATTTAAACGTTTTTATATGTATT [CACACA_negctrl_site487],7.77 ± 0.34
19,TTTGTAAAACTATATTGTACTTTTATATATCTACAA [XGTACX_site5507],7.62 ± 0.54
20,ACAACTCGGAAGGTTTGTACTTAAAGTATAATTAAG [XGTACX_site737],7.67 ± 0.46
